Experimental data taken from patent US20240117043A1 (SHANGHAI JUNSHI BIOSCIENCES, published 2024).

T1: recombinant human HX1 hCD112R Fc (human, UniProt Q6DKI7 41-171, limits assumed)
T1 construct: Coated antigen of the ELISA (Suzhou Junmeng); also called human CD112R; not shown: Fc part
T1 sequence (looked up): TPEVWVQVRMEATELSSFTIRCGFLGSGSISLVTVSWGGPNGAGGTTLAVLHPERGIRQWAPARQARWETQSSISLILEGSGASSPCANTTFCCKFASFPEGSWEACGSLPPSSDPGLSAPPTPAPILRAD

T2: recombinant human TIGIT (His Tag) (human, UniProt Q495A1 22-141)
T2 construct: Coated antigen of the ELISA; not shown: His tag
T2 sequence (looked up): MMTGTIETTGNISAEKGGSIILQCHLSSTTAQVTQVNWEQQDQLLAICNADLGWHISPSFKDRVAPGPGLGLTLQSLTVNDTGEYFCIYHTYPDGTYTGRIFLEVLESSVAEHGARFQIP

B1: bispecific antibody JS-5 (IgG4) (bispecific antibody)
heavy: QVQLVQSGAEVKKPGASVKVSCKTSGYAFTEYTMHWVRQAPGKGLEWMGGINPNTGGTTYNQKFQGRVTLTVDKSSSTAYMELSSLRSEDTVVYYCAKLLRLMYYFDYWGQGTLVTVSSASTKGPSVFPLAPCSRSTSESTAALGCLVKDYFPEPVTVSWNSGALTSGVHTFPAVLQSSGLYSLSSVVTVPSSSLGTKTYTCNVDHKPSNTKVDKRV[human IgG4 Fc with S228P (EU numbers) omitted here]GGGSGGGGSDIVMTQSPDSLAVSLGERATINCKASQSVSNDVAWYQQKPGQPPKLLIYYVSHRFTGVPDRFSGSGSGTDFTLTISSLQAEDVAVYFCHQAYRSPWTFGCGTKLEIKGGGGSGGGGSGGGGSGGGGSEVQLVESGGGLVKPGGSLRLSCAASGFTFSSYHMSWVRQAPGKCLELVSAINSNGINTYYLDTVKGRFTISRDNAKNSLYLQMNSLRAEDTAVYYCARHEDYYGFAMDYWGQGTLVTVSS
light: DIQMTQSPSSLSASVGDRVTITCQASQDVRTAVAWYQQKPGKAPKLLIYSASYRYTGVPSRFSGSGSGTDFTFTISSLQPEDIATYYCHQHYITPWTFGGGTKVEIKRTVAAPSVFIFPPSDEQLKSGTASVVCLLNNFYPREAKVQWKVDNALQSGNSQESVTEQDSKDSTYSLSSTLTLSKADYEKHKVYACEVTHQGLSSPVTKSFNRGEC
notes: Tetravalent
B2: bispecific antibody JS-9 (IgG4) (bispecific antibody)
heavy: DIVMTQSPDSLAVSLGERATINCKASQSVSNDVAWYQQKPGQPPKLLIYYVSHRFTGVPDRFSGSGSGTDFTLTISSLQAEDVAVYFCHQAYRSPWTFGCGTKLEIKGGGGSGGGGSGGGGSGGGGSEVQLVESGGGLVKPGGSLRLSCAASGFTFSSYHMSWVRQAPGKCLELVSAINSNGINTYYLDTVKGRFTISRDNAKNSLYLQMNSLRAEDTAVYYCARHEDYYGFAMDYWGQGTLVTVSSGGGGSGGGGSQVQLVQSGAEVKKPGASVKVSCKTSGYAFTEYTMHWVRQAPGKGLEWMGGINPNTGGTTYNQKFQGRVTLTVDKSSSTAYMELSSLRSEDTVVYYCAKLLRLMYYFDYWGQGTLVTVSSASTKGPSVFPLAPCSRSTSESTAALGCLVKDYFPEPVTVSWNSGALTSGVHTFPAVLQSSGLYSLSSVVTVPSSSLGTKTYTCNVDHKPSNTKVDKRV[human IgG4 Fc with S228P (EU numbers) omitted here]
light: DIQMTQSPSSLSASVGDRVTITCQASQDVRTAVAWYQQKPGKAPKLLIYSASYRYTGVPSRFSGSGSGTDFTFTISSLQPEDIATYYCHQHYITPWTFGGGTKVEIKRTVAAPSVFIFPPSDEQLKSGTASVVCLLNNFYPREAKVQWKVDNALQSGNSQESVTEQDSKDSTYSLSSTLTLSKADYEKHKVYACEVTHQGLSSPVTKSFNRGEC
notes: Tetravalent

Columns and labels:
[1] = target: T1, recombinant human HX1 hCD112R Fc; assay: ELISA, plate coated with recombinant human HX1 hCD112R Fc, detection with HRP anti-human IgG4 Fc; unit taken from the concentration axis [3a]
Description: (§1) 2. Procedures [0255] a. A 96-well plate was coated with 1.0 μg/mL recombinant human HX1 hCD112R Fc (Suzhou Junmeng) as the antigen at 100 μL/well and incubated at 37° C. for 1.5 h. [0256] b. The plate was washed 4 times with 300 μL/well 1×PBST, and 2% BSA was added at 200 μL/well. The plate was blocked at 37° C. for 1.5 h. [0257] c. The plate was washed 4 times with 300 μL/well 1×PBST, and serial dilutions of the bispecific antibodies JS-1,3,5,9 and a negative control: antibody (anti-KLH hIgG4) (initial concentration 3.0 μg/mL, 3-fold serially diluted to 12 concentration points, 100 μL/well) were added. The plate was incubated at 37° C. for 1 h. [0258] d. The plate was washed 4 times with 300 μL/well 1×PBST. [0259] e. 5000-fold diluted horseradish peroxidase (HRP)-conjugated mouse anti-human IgG4 Fc antibody (Southern Biotech, 9200-05) was added at 100 μL/well, and the plate was incubated at 37° C. for 1 h. [0260] f. The plate was washed 4 times with 300 μL/well 1×PBST. [0261] g. 0.1 mg/mL TMB was added at 100 μL/well, and after the plate was incubated at 37° C. for 15 min, a 2 M solution of hydrochloric acid was added at 100 μL/well to stop the reactions. […] The absorbance was measured at 450 nm/620 nm on a microplate reader, and data were analyzed using Graphpad Prism7.

[2] = target: T2, recombinant human TIGIT (His Tag); assay: ELISA, relative binding activity, sample kept at 40 C for 4 weeks
Description: (§2) The antibody samples were exchanged into a pH 5.5 buffer system (20 mM histidine-histidine hydrochloride buffer, 230 mM trehalose) with the concentration of the samples controlled at about 5 mg/mL, and the buffer was aliquoted into vials at 500 μL/vial. The vials were placed in a 40° C. incubator to test stability at 0 W, 2 W and 4 W. Samples were sent for analysis according to Table 2. Stability was assessed by the following parameters: (a) the content of antibody monomers, aggregates or fragments determined by SEC-HPLC (size exclusion chromatography); (b) the molecular weight of the antibody determined by CE-SDS (sodium dodecyl sulfate capillary electrophoresis); and (c) the bioactivity of the antibody determined by an ELISA or reporter gene assay.

[3] = target: T1, recombinant human HX1 hCD112R Fc; assay: as above
Description: as §2

[4] = target: T2, recombinant human TIGIT (His Tag); assay: ELISA, relative binding activity, sample kept at 40 C for 2 weeks
Description: as §2

[5] = target: T1, recombinant human HX1 hCD112R Fc; assay: as above
Description: as §2

[6] = target: T2, recombinant human TIGIT (His Tag); assay: ELISA, relative binding activity, sample kept at 40 C for 0 weeks
Description: as §2

[7] = target: T1, recombinant human HX1 hCD112R Fc; assay: as above
Description: as §2

[8] = target: T2, recombinant human TIGIT (His Tag); assay: ELISA, plate coated with recombinant human TIGIT (His Tag), detection with HRP anti-human IgG4 Fc; unit taken from the concentration axis [2a]
Description: (§3) 2. Procedures [0241] a. A 96-well plate was coated with 1.5 μg/mL recombinant human TIGIT (His Tag) (Suzhou Junmeng) as the antigen at 100 μL/well and incubated at 37° C. for 1.5 h. [0242] b. The plate was washed 4 times with 300 μL/well 1×PBST, and 2% BSA was added at 200 μL/well. The plate was blocked at 37° C. for 1.5 h. [0243] c. The plate was washed 4 times with 300 μL/well 1×PBST, and serial dilutions of the bispecific antibodies JS-1,3,5,9 and a negative control: antibody (anti-KLH hIgG4) (initial concentration 1.0 μg/mL, 3-fold serially diluted to 12 concentration points, 100 μL/well) were added. The plate was incubated at 37° C. for 1 h. [0244] d. The plate was washed 4 times with 300 μL/well 1×PBST. [0245] e. 5000-fold diluted horseradish peroxidase (HRP)-conjugated mouse anti-human IgG4 Fc antibody (Southern Biotech, 9200-05) was added at 100 μL/well, and the plate was incubated at 37° C. for 1 h. […] The plate was washed 4 times with 300 μL/well 1×PBST. [0247] g. 0.1 mg/mL TMB was added at 100 μL/well, and after the plate was incubated at 37° C. for 15 min, a 2 M solution of hydrochloric acid was added at 100 μL/well to stop the reactions. [0248] h. The absorbance was measured at 450 nm/620 nm on a microplate reader, and data were analyzed using Graphpad Prism7.

[9] = target: T1, recombinant human HX1 hCD112R Fc; assay: ELISA, plate coated with recombinant human HX1 hCD112R Fc, detection with HRP anti-human IgG4 Fc; unit taken from the concentration axis [3b]
Description: as §1

[10] = target: T2, recombinant human TIGIT (His Tag); assay: ELISA, plate coated with recombinant human TIGIT (His Tag), detection with HRP anti-human IgG4 Fc; unit taken from the concentration axis [2b]
Description: as §3

| Binder | EC50 [1] [µg/mL] | TIGIT binding activity Elisa (%) [2] [%] | CD112R binding activity Elisa (%) [3] [%] | TIGIT binding activity Elisa (%) [4] [%] | CD112R binding activity Elisa (%) [5] [%] | TIGIT binding activity Elisa (%) [6] [%] | CD112R binding activity Elisa (%) [7] [%] | EC50 [8] [µg/mL] | EC50 [9] [µg/mL] | EC50 [10] [µg/mL] |
| --- | --- | --- | --- | --- | --- | --- | --- | --- | --- | --- |
| B1 | 0.0282 | 103 | 105 | 89 | 124 | 108 | 115 | 0.0833 | – | – |
| B2 | – | – | – | – | – | – | – | – | 0.00419 | 0.0158 |
